± gives the standard deviation of the averaged measurements. Single values are uncertain, as repeats are few or missing.
Columns and labels:
CHO-K1 [1] = assay: micronucleus frequency (% of nucleated events); higher = more micronuclei (genotoxic)
CHO-K1 [2] = assay: relative survival (nuclei to bead ratio vs DMSO control) (% of vehicle control); higher = more surviving cells
CHO-K1 [3] = assay: hypodiploid nuclei frequency (% of nucleated events); higher = more hypodiploid events (aneugenic)
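For hypodiploid nuclei frequency (% of nucleated events) in this document: hypodiploid nuclei gated on a flow cytometer with 488 nm excitation after SYTOX Green staining, cultures at 37 °C, positive controls vinblastine without S9 and cyclophosphamide with S9.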
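For micronucleus frequency (% of nucleated events) in this document: cells lysed with nuclei stained by SYTOX Green, then micronucleus-gated events counted against nucleated events by flow cytometry with 488 nm excitation.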
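For relative survival (nuclei to bead ratio vs DMSO control) in this document: Lysed-cell nuclei stained with SYTOX Green and counted against counting beads by flow cytometry at 488 nm excitation, with vinblastine (no S9) and cyclophosphamide (plus S9) as positive controls.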

CCN(CC)C(=S)SSC(=S)N(CC)CC [Disulfiram]
Details | hypodiploid nuclei frequency, CHO-K1 [3] [%] | micronucleus frequency, CHO-K1 [1] [%] | relative survival, CHO-K1 [2]
concentration: 4.48 (µM), S9 metabolic activation: with S9, exposure time: 3-4 hours | 0.24 | 1.2 | 102
concentration: 4.48 (µM), S9 metabolic activation: without S9, exposure time: 24 hours | – | – | 37.48 ± 0.092
concentration: 5.6 (µM), S9 metabolic activation: with S9, exposure time: 3-4 hours | 0.22 | 1.42 | 97.9
concentration: 5.6 (µM), S9 metabolic activation: without S9, exposure time: 24 hours | – | – | 39.8 ± 2.5
concentration: 7 (µM), S9 metabolic activation: with S9, exposure time: 3-4 hours | 0.2 | 1.16 | 138
concentration: 7 (µM), S9 metabolic activation: without S9, exposure time: 24 hours | – | – | 38.2 ± 6.2
concentration: 8.75 (µM), S9 metabolic activation: with S9, exposure time: 3-4 hours | 0.2 | 2.08 | 106
concentration: 8.75 (µM), S9 metabolic activation: without S9, exposure time: 24 hours | – | – | 38.4 ± 4.4
concentration: 10.9 (µM), S9 metabolic activation: with S9, exposure time: 3-4 hours | 0.32 | 1.6 | 88.9
concentration: 10.9 (µM), S9 metabolic activation: without S9, exposure time: 24 hours | – | – | 38 ± 1.5
concentration: 13.7 (µM), S9 metabolic activation: with S9, exposure time: 3-4 hours | 0.26 | 1.44 | 103
concentration: 13.7 (µM), S9 metabolic activation: without S9, exposure time: 24 hours | – | – | 37.2 ± 0.87
concentration: 17.1 (µM), S9 metabolic activation: with S9, exposure time: 3-4 hours | 0.18 | 1.48 | 106
concentration: 17.1 (µM), S9 metabolic activation: without S9, exposure time: 24 hours | – | – | 40.7 ± 12
concentration: 21.4 (µM), S9 metabolic activation: with S9, exposure time: 3-4 hours | 0.5 | 1.12 | 116
concentration: 21.4 (µM), S9 metabolic activation: without S9, exposure time: 24 hours | – | – | 34.4 ± 3
concentration: 26.7 (µM), S9 metabolic activation: with S9, exposure time: 3-4 hours | 0.28 | 1.2 | 124
concentration: 26.7 (µM), S9 metabolic activation: without S9, exposure time: 24 hours | – | – | 34.1 ± 1.6
concentration: 33.4 (µM), S9 metabolic activation: with S9, exposure time: 3-4 hours | 0.1 | 1.28 | 131
concentration: 33.4 (µM), S9 metabolic activation: without S9, exposure time: 24 hours | – | – | 31.7 ± 1.7
concentration: 41.7 (µM), S9 metabolic activation: with S9, exposure time: 3-4 hours | 0.24 | 1.08 | 105
concentration: 41.7 (µM), S9 metabolic activation: without S9, exposure time: 24 hours | – | – | 26.8 ± 3.6
concentration: 52.2 (µM), S9 metabolic activation: with S9, exposure time: 3-4 hours | 0.38 | 0.88 | 89.7
concentration: 52.2 (µM), S9 metabolic activation: without S9, exposure time: 24 hours | – | – | 24.3 ± 1.8
concentration: 65.2 (µM), S9 metabolic activation: with S9, exposure time: 3-4 hours | 0.24 | 1.26 | 85.8
concentration: 65.2 (µM), S9 metabolic activation: without S9, exposure time: 24 hours | – | – | 23.6 ± 1.9
concentration: 81.5 (µM), S9 metabolic activation: with S9, exposure time: 3-4 hours | 0.48 | 1.58 | 71.4
concentration: 81.5 (µM), S9 metabolic activation: without S9, exposure time: 24 hours | – | – | 19.8 ± 0.5
concentration: 102 (µM), S9 metabolic activation: with S9, exposure time: 3-4 hours | 0.52 | 3.2 | 51.7
concentration: 102 (µM), S9 metabolic activation: without S9, exposure time: 24 hours | – | – | 11.6 ± 10
concentration: 127 (µM), S9 metabolic activation: with S9, exposure time: 3-4 hours | 0.27 | 2.87 | 43.8
concentration: 159 (µM), S9 metabolic activation: with S9, exposure time: 3-4 hours | 0.51 | 5.61 | 41.1
concentration: 199 (µM), S9 metabolic activation: with S9, exposure time: 3-4 hours | – | – | 24.1

CCOc1ccc2c(c1)C(C)=CC(C)(C)N2 [Ethoxyquin]
Details | hypodiploid nuclei frequency, CHO-K1 [3] [%] | micronucleus frequency, CHO-K1 [1] [%] | relative survival, CHO-K1 [2]
concentration: 4.5 (µM), S9 metabolic activation: with S9, exposure time: 3-4 hours | 0.08 | 1.16 | 107
concentration: 4.5 (µM), S9 metabolic activation: without S9, exposure time: 24 hours | 0.4 | 1.7 | 95.3
concentration: 5.63 (µM), S9 metabolic activation: with S9, exposure time: 3-4 hours | 0.18 | 0.84 | 106
concentration: 5.63 (µM), S9 metabolic activation: without S9, exposure time: 24 hours | 0.28 | 1.26 | 93.6
concentration: 7.04 (µM), S9 metabolic activation: with S9, exposure time: 3-4 hours | 0.26 | 1.36 | 110
concentration: 7.04 (µM), S9 metabolic activation: without S9, exposure time: 24 hours | 0.48 | 1.66 | 90.3
concentration: 8.8 (µM), S9 metabolic activation: with S9, exposure time: 3-4 hours | 0.38 | 0.7 | 95.7
concentration: 8.8 (µM), S9 metabolic activation: without S9, exposure time: 24 hours | 0.58 | 2.5 | 98.8
concentration: 11 (µM), S9 metabolic activation: with S9, exposure time: 3-4 hours | 0.36 | 1.24 | 107
concentration: 11 (µM), S9 metabolic activation: without S9, exposure time: 24 hours | 0.42 | 1.54 | 84.2
concentration: 13.7 (µM), S9 metabolic activation: with S9, exposure time: 3-4 hours | 0.16 | 0.98 | 92.7
concentration: 13.7 (µM), S9 metabolic activation: without S9, exposure time: 24 hours | 0.48 | 1.26 | 74.3
concentration: 17.2 (µM), S9 metabolic activation: with S9, exposure time: 3-4 hours | 0.14 | 1.2 | 102
concentration: 17.2 (µM), S9 metabolic activation: without S9, exposure time: 24 hours | 0.62 | 3.26 | 88.1
concentration: 21.5 (µM), S9 metabolic activation: with S9, exposure time: 3-4 hours | 0.1 | 1.5 | 133
concentration: 21.5 (µM), S9 metabolic activation: without S9, exposure time: 24 hours | 0.34 | 2.26 | 89.9
concentration: 26.8 (µM), S9 metabolic activation: with S9, exposure time: 3-4 hours | 0.18 | 1.24 | 110
concentration: 26.8 (µM), S9 metabolic activation: without S9, exposure time: 24 hours | 0.5 | 1.74 | 70.8
concentration: 33.6 (µM), S9 metabolic activation: with S9, exposure time: 3-4 hours | 0.2 | 1.06 | 128
concentration: 33.6 (µM), S9 metabolic activation: without S9, exposure time: 24 hours | 0.64 | 2.28 | 83.5
concentration: 41.9 (µM), S9 metabolic activation: with S9, exposure time: 3-4 hours | 0.14 | 1.16 | 108
concentration: 41.9 (µM), S9 metabolic activation: without S9, exposure time: 24 hours | 0.38 | 1.96 | 93.1
concentration: 52.4 (µM), S9 metabolic activation: with S9, exposure time: 3-4 hours | 0.16 | 1.22 | 97.3
concentration: 52.4 (µM), S9 metabolic activation: without S9, exposure time: 24 hours | 0.4 | 2 | 82.2
concentration: 65.5 (µM), S9 metabolic activation: with S9, exposure time: 3-4 hours | 0.24 | 1.26 | 106
concentration: 65.5 (µM), S9 metabolic activation: without S9, exposure time: 24 hours | 0.62 | 3.24 | 74
concentration: 81.9 (µM), S9 metabolic activation: with S9, exposure time: 3-4 hours | 0.12 | 1.2 | 89.6
concentration: 81.9 (µM), S9 metabolic activation: without S9, exposure time: 24 hours | 0.76 | 4.22 | 75.9
concentration: 102 (µM), S9 metabolic activation: with S9, exposure time: 3-4 hours | 0.26 | 2.14 | 80.5
concentration: 102 (µM), S9 metabolic activation: without S9, exposure time: 24 hours | 1.82 | 8.74 | 57.3
concentration: 128 (µM), S9 metabolic activation: with S9, exposure time: 3-4 hours | 0.24 | 2.06 | 63.6
concentration: 128 (µM), S9 metabolic activation: without S9, exposure time: 24 hours | – | – | 36.5
concentration: 160 (µM), S9 metabolic activation: with S9, exposure time: 3-4 hours | 0.17 | 3.38 | 52.8
concentration: 160 (µM), S9 metabolic activation: without S9, exposure time: 24 hours | – | – | 25.7
concentration: 200 (µM), S9 metabolic activation: with S9, exposure time: 3-4 hours | 0.51 | 4.03 | 85.8
concentration: 200 (µM), S9 metabolic activation: without S9, exposure time: 24 hours | – | – | 5.19
